Data reported in the antibiotic and cytotoxicity screens of Wong et al. (2023).
The list shows a part of the results.

Key:
HSkMC = human skeletal muscle cells; assay: cytotoxicity call (relative viability < 0.9); details: 10 µM
HepG2 = assay: cytotoxicity call (relative viability < 0.9); details: 10 µM
S. aureus RN4220 = assay: growth inhibition call (relative growth <= 0.2); details: 50 µM

SMILES | cytotoxicity call (HSkMC) | cytotoxicity call (HepG2) | growth inhibition call (S. aureus RN4220)
C[C@@H]1CN([C@@H](C)CO)C(=O)c2cc(NC(=O)Nc3ccc(C(F)(F)F)cc3)ccc2O[C@H]1CN(C)Cc1ccc(C(=O)Nc2ccccc2N)cc1 | inactive | active | inactive
COc1cc(C=Cc2ccc(O)cc2)cc(OC)c1 | inactive | active | active
C[C@H]1CN(C)C(=O)c2cc(NS(C)(=O)=O)ccc2O[C@H]1CN(C)S(C)(=O)=O | inactive | inactive | inactive
COC(=O)c1cc(-c2ccccc2)oc1CN | inactive | inactive | inactive
COc1ccc(NC(=O)Nc2ccc3c(c2)C(=O)N([C@H](C)CO)C[C@H](C)[C@H](CN(C)CC2CC2)OCCCC[C@H](C)O3)cc1 | inactive | inactive | inactive
CCCCCCCCCCCCCCCC(=O)C(F)(F)F | inactive | inactive | inactive
C[C@@H]1CN([C@H](C)CO)C(=O)Cc2cc(NS(=O)(=O)c3cccs3)ccc2O[C@@H]1CN(C)Cc1ccc(Oc2ccccc2)cc1 | active | active | inactive
CN(C)S(=O)(=O)c1ccc(CN)cc1 | inactive | inactive | inactive
CCN(CC)c1ccc(N2CC=C[C@@]34O[C@@H]5C=CCOC(=O)[C@@H]5[C@H]3C(=O)N([C@@H](CO)C(C)C)[C@@H]4C2=O)cc1 | inactive | inactive | inactive
CC(C)NC(=O)Nc1ccc2c(c1)C(=O)N([C@@H](C)CO)C[C@H](C)[C@@H](CN(C)C(=O)Nc1ccccc1)OCCCC[C@H](C)O2 | inactive | inactive | inactive
COc1ccc(S(=O)(=O)Nc2ccc3c(c2)C(=O)N([C@H](C)CO)C[C@@H](C)[C@H](CN(C)C(=O)NC(C)C)O3)cc1 | inactive | inactive | inactive
Cc1ccc(S(=O)(=O)N(C)C[C@@H]2OCCCC[C@@H](C)Oc3ccc(NC(=O)CCC(F)(F)F)cc3C(=O)N([C@@H](C)CO)C[C@@H]2C)cc1 | inactive | inactive | inactive
Cc1cc(CCC[C@H](CC(=O)NO)C(=O)N[C@H](C(=O)N[C@H](C)c2ccccc2)C(C)(C)C)ccc1-c1ccccc1 | inactive | active | inactive
Cc1ccc(S(=O)(=O)Nc2ccc3c(c2)CC(=O)N([C@@H](C)CO)C[C@H](C)[C@H](CN(C)S(C)(=O)=O)O3)cc1 | inactive | inactive | inactive
C[C@@H]1CN([C@@H](C)CO)C(=O)c2ccccc2-c2ccccc2CO[C@H]1CN(C)C(=O)Nc1ccc(F)cc1 | inactive | inactive | inactive
C[C@@H]1CN([C@@H](C)CO)C(=O)c2cc(NC(=O)Cn3cnnn3)ccc2O[C@@H]1CN(C)Cc1ccc(C(F)(F)F)cc1 | inactive | inactive | inactive
N[C@H](CC(=O)O)C(=O)O | inactive | inactive | inactive
C[C@@H]1CN([C@@H](C)CO)C(=O)c2cccc(NC(=O)c3nc4ccccc4s3)c2O[C@H]1CN(C)C(=O)Nc1cccc2ccccc12 | inactive | active | inactive
C[C@@H]1CCCCO[C@@H](CN(C)C(=O)NC2CCCCC2)[C@@H](C)CN([C@H](C)CO)C(=O)c2cc(NS(=O)(=O)c3ccccc3)ccc2O1 | inactive | inactive | inactive
O=C(C[C@@H]1C=C[C@@H](NC(=O)CN2CCOCC2)[C@H](CO)O1)NC1CCC1 | inactive | inactive | inactive
C[C@H]1CN([C@@H](C)CO)C(=O)Cc2cc(NC(=O)Cc3cn(C)c4ccccc34)ccc2O[C@H]1CN(C)Cc1ccc(Cl)c(Cl)c1 | active | inactive | inactive
CC(C)NC(=O)N(C)C[C@@H]1OCCCC[C@@H](C)Oc2ccc(NS(C)(=O)=O)cc2C(=O)N([C@H](C)CO)C[C@H]1C | inactive | inactive | inactive
C[C@H]1CN([C@@H](C)CO)C(=O)c2cccc(NC(=O)c3cnccn3)c2O[C@@H]1CN(C)Cc1ccncc1 | inactive | inactive | inactive
Cc1ccc(S(=O)(=O)Nc2cccc3c2O[C@H](CN(C)Cc2ccc(C(F)(F)F)cc2)[C@@H](C)CN([C@@H](C)CO)C3=O)cc1 | inactive | inactive | inactive

SMILES | cytotoxicity call (HSkMC) | cytotoxicity call (HepG2) | growth inhibition call (S. aureus RN4220)
COC(=O)c1c2oc(c1C(=O)OC)C(=O)N[C@H](Cc1ccccc1)Cn1cc(nn1)[C@H](Cc1ccccc1)NC(=O)N[C@@H](CO)CC2 | inactive | inactive | inactive
O=C(CN1CCOCC1)NCC[C@@H]1CC[C@H](NC(=O)c2ccc3c(c2)OCO3)[C@@H](CO)O1 | inactive | inactive | inactive
O=C(O)CN1C(=O)c2cccc3cccc(c23)C1=O | inactive | inactive | inactive
C[C@@H]1CN([C@@H](C)CO)C(=O)c2cc(NC(=O)NC3CCCCC3)ccc2O[C@@H](C)CCCCO[C@@H]1CN(C)C(=O)CCC(F)(F)F | inactive | inactive | inactive
C[C@@H]1CCCCO[C@@H](CN(C)C(=O)C2CCCCC2)[C@H](C)CN([C@H](C)CO)C(=O)c2cc(NS(=O)(=O)c3ccc(F)cc3)ccc2O1 | inactive | inactive | inactive
C[C@@H]1CN([C@H](C)CO)C(=O)c2cccc(NC(=O)NC3CCCCC3)c2O[C@@H]1CN(C)C(=O)Nc1ccc(C(F)(F)F)cc1 | inactive | inactive | inactive
O=C(O)c1ccccn1 | inactive | inactive | inactive
C[C@H](CO)N1C[C@H](C)[C@@H](CN(C)S(C)(=O)=O)Oc2c(NC(=O)CCC(F)(F)F)cccc2C1=O | inactive | inactive | inactive
C[C@H](CO)N1C[C@H](C)[C@@H](CN(C)Cc2ccc(Cl)c(Cl)c2)Oc2ccc(NC(=O)CCC(F)(F)F)cc2C1=O | inactive | inactive | inactive
O=C(Nc1ccccc1)Nc1ccccc1 | inactive | inactive | inactive
C[C@@H]1CN([C@H](C)CO)C(=O)c2cc(C#CC3(O)CCCC3)cnc2O[C@H]1CN(C)C(=O)C1CCCCC1 | inactive | inactive | inactive
CO[C@@H]1CN(C)C(=O)c2cc(NS(=O)(=O)CC(F)(F)F)ccc2OC[C@@H](C)N(C(=O)c2ccc3c(c2)OCO3)C[C@H]1C | inactive | inactive | inactive
COc1ccc(S(=O)(=O)Nc2cccc3c2O[C@@H](CN(C)CC2CC2)[C@H](C)CN([C@@H](C)CO)C3=O)cc1 | inactive | inactive | inactive
C[C@H](CO)N1C[C@H](C)[C@@H](CN(C)Cc2ccccc2)Oc2cc(C#Cc3ccccn3)ccc2S1(=O)=O | inactive | inactive | inactive
C[C@@H]1CN([C@@H](C)CO)C(=O)c2cccc(NS(C)(=O)=O)c2O[C@H]1CN(C)Cc1ccc(C(F)(F)F)cc1 | inactive | inactive | inactive
COc1ccc(NC(=O)Nc2cccc3c2O[C@H](CN(C)CC2CCCCC2)[C@H](C)CN([C@H](C)CO)C3=O)cc1 | inactive | inactive | inactive
C[C@@H]1CN([C@@H](C)CO)C(=O)Cc2cc(NS(=O)(=O)c3ccccc3)ccc2O[C@@H]1CN(C)Cc1ccc(-c2ccccc2)cc1 | active | active | inactive
Cc1ccc(-c2ccc3c(c2)O[C@H](CN(C)C(=O)CN(C)C)[C@@H](C)CN([C@@H](C)CO)S3(=O)=O)cc1 | inactive | inactive | inactive
Cc1ccc(S(=O)(=O)N(C)C[C@H]2OCCCC[C@H](C)Oc3ccc(NC(=O)Cc4ccccc4)cc3C(=O)N([C@@H](C)CO)C[C@H]2C)cc1 | inactive | inactive | inactive
C/C=C/COc1nc2c(c(=O)n(C)c(=O)n2C)n1C | inactive | inactive | inactive
COc1ccc(CN(C)C[C@H]2OCCCC[C@H](C)Oc3ccc(NC(=O)c4ccncc4)cc3C(=O)N([C@@H](C)CO)C[C@@H]2C)cc1 | inactive | inactive | inactive
C[C@@H]1O[C@@H](OC[C@H]2O[C@@H](Oc3c(-c4ccc(O)cc4)oc4cc(O)cc(O)c4c3=O)[C@H](O)[C@@H](O)[C@@H]2O)[C@H](O)[C@H](O)[C@H]1O | inactive | inactive | inactive
CC(C)(C)[S@@](=O)N1Cc2cc(C(=O)N[C@@H]3CCN(Cc4ccccc4)C3)nc(-c3cccc(-c4ccncc4)c3)c2[C@H]1CCO | inactive | inactive | inactive
